In all, about 310,000 compounds went through this assay and about 14,000 (4.5%) showed an effect of 50% or more. The effect is printed as a negative number. The list shows a part of the results.
Target: human ether-à-go-go-related gene (hERG) potassium channel (human, UniProt Q12809)
Assay: primary screen, population patch clamp on CHO cells stably expressing hERG
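Also: peak tail current of the secondary pulse compared with the same well before compound.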

human ether-à-go-go-related gene (hERG) potassium channel, sequence (Q12809 whole entry, looked up): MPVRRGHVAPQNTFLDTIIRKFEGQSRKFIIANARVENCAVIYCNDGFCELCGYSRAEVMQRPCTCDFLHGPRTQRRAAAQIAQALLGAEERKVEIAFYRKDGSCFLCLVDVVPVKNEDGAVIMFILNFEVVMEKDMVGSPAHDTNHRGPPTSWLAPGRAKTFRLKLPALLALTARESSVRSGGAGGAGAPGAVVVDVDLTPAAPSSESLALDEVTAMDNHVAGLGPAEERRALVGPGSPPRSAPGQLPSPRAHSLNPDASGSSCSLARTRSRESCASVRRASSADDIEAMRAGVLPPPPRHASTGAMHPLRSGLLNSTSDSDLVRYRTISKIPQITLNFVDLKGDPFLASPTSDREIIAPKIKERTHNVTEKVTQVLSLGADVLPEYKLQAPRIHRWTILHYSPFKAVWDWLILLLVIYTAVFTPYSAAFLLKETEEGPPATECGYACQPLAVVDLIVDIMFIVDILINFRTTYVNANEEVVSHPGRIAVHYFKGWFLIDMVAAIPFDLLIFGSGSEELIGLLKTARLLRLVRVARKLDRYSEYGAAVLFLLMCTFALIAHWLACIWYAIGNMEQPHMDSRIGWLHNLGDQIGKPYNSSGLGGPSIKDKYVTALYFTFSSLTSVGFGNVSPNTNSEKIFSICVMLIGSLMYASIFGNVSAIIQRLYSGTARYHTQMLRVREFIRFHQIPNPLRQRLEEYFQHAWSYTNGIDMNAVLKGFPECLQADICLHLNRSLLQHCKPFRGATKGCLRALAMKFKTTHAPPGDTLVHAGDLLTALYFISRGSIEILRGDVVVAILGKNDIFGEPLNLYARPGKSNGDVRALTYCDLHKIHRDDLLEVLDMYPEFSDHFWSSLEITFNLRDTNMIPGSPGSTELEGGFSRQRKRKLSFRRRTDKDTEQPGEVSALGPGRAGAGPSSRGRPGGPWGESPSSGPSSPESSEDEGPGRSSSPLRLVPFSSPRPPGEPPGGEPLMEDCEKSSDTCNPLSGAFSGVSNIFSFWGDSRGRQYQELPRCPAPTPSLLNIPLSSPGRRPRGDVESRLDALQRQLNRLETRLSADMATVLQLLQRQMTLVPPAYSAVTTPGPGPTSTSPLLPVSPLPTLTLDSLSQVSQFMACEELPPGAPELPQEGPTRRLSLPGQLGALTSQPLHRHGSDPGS

Compared with Cc1ccc(C)c(S(=O)(=O)NCC(=O)NCc2ccco2)c1, CCC(C)C(NC(=O)c1ccccc1NC(=O)c1ccc(OC)cc1)C(=O)NCc1ccco1 (stereo not shown) is higher in “hERG current change (%, negative = inhibition) at 10uM” value: 3.24% for the first, 8.78% for the second.

First: COc1ccc(-n2cc(CNCCc3nc(C)cc(C)n3)c(-c3ccccc3Cl)n2)cc1
Second: Clc1ccc2[nH]cc(-c3nnnn3-c3ccc4ccccc4c3)c2c1
The “hERG current change (%, negative = inhibition) at 10uM” value of the first is lower: -62.6% for the first, 12.6% for the second.

Going from O=C(Cc1c[nH]c2ccccc12)NCC(=O)Nc1ccc(F)c(F)c1F to O=C(CNc1ccccc1)N/N=C/c1c[nH]c2ccccc12, the “hERG current change (%, negative = inhibition) at 10uM” value falls from 1.04% to -16.1%.

Compared with COc1cc2ccccc2cc1C(=O)N1CCN(c2ccccn2)CC1, O=C(c1cnccn1)N1CCN(S(=O)(=O)c2ccc3ccccc3c2)CC1 is higher in “hERG current change (%, negative = inhibition) at 10uM” value: -34.4% for the first, -9.29% for the second.

First: Cc1[nH]c2ccccc2c1C(=O)CSc1ccc(Cl)cc1
Second: Cc1c(NC(=S)Nc2ccc(Cl)cc2)c(=O)n(-c2ccccc2)n1C
The “hERG current change (%, negative = inhibition) at 10uM” value of the first is higher: 17.6% for the first, -7.99% for the second.

First: CC(C)(C)NCCCOc1ccc(Cl)cc1C(C)(C)C.O=C(O)C(=O)O
Second: CCC(=O)c1ccccc1OCCN1CCN(CC)CC1.O=C(O)C(=O)O
The “hERG current change (%, negative = inhibition) at 10uM” value of the first is higher: 1.96% for the first, -13.7% for the second.

Compared with C=CCn1c(O)c(N=NC(=S)Nc2ccc(OC)c(Cl)c2)c2ccccc21, COc1ccc(NC(=O)Nc2cc3oc4ccccc4c3cc2OC)cc1 is lower in “hERG current change (%, negative = inhibition) at 10uM” value: 39.1% for the first, 12.2% for the second.

Compared with CCOC(=O)c1ccc[n+](CC(=O)Nc2cc(C(F)(F)F)ccc2Cl)c1.[Cl-], O=C(NC1=NCCS1)c1ccc(C(F)(F)F)cc1 is lower in “hERG current change (%, negative = inhibition) at 10uM” value: 2.93% for the first, -5.26% for the second.

Going from COc1ccc2cc(CO)c(Cl)nc2c1 to COc1ccc(NC(=O)c2ccc3snnc3c2)cc1, the “hERG current change (%, negative = inhibition) at 10uM” value falls from 10.5% to 9.11%.

Compared with Cc1ccc(S(=O)(=O)N2CCCC(C(=O)NCc3ccccc3F)C2)cc1 (stereo not shown), CN(C(=O)N1CCN(S(=O)(=O)c2ccccc2)CC1)c1ccccc1 is lower in “hERG current change (%, negative = inhibition) at 10uM” value: 25.1% for the first, 13.8% for the second.

Compared with COc1ccc(CN(C#N)c2nc(SC)nc(N(C)C)n2)cc1, Cc1ccc(CNC(=O)CSc2n[nH]c(N)n2)cc1 is higher in “hERG current change (%, negative = inhibition) at 10uM” value: -8.55% for the first, 18.5% for the second.

First: Nc1c(C(=O)Nc2cccc(C(=O)O)c2)sc2nc3c(cc12)CCCC3
Second: CCC(=O)N1CCN(c2ccc(NC(=O)c3ccc4c(c3)OCCO4)cc2)CC1
The “hERG current change (%, negative = inhibition) at 10uM” value of the first is higher: 12.1% for the first, 1.98% for the second.

Compared with COc1ccc(OC)c(S(=O)(=O)CC(O)COc2ccccc2Cl)c1 (stereo not shown), COc1ccc(CCNC(=O)CC(Cc2ccccc2)C(=O)O)cc1OC (stereo not shown) is higher in “hERG current change (%, negative = inhibition) at 10uM” value: -1.82% for the first, 4.4% for the second.

Compared with Cc1cccc([C@@H]2[C@@H]3C(=O)N(Cc4ccccc4)C(=O)[C@@H]3[C@]3(Cc4ccccc4)C(=O)N(c4ccccc4)C(=O)N23)c1, Cc1ccccc1-c1cn(-c2ccccc2)c(=S)[nH]1 is lower in “hERG current change (%, negative = inhibition) at 10uM” value: 12.4% for the first, -10.1% for the second.

First: Nn1c(SCC(=O)Nc2ccc(N3CCOCC3)cc2)nnc1-c1cccc(F)c1
Second: Oc1ccc(N=Nc2cccc(C(F)(F)F)c2)cc1C=Nc1ccc(N2CCOCC2)cc1
The “hERG current change (%, negative = inhibition) at 10uM” value of the first is lower: 9.93% for the first, 15.6% for the second.

First: CC(C)C1OC2(C)OC(=N)C1(C#N)C(C#N)(C#N)C2c1ccccc1 (stereo not shown)
Second: CC12CCC(C(=O)Nc3ccccc3N3CCOCC3)(CC1=O)C2(C)C (stereo not shown)
The “hERG current change (%, negative = inhibition) at 10uM” value of the first is higher: 2.05% for the first, -3.18% for the second.

Going from O=C1NC(=O)N(Cc2ccc(F)cc2)C(=O)/C1=C\C=C\c1ccco1 to O=c1[nH]cnc(O)c1C(c1ccc([N+](=O)[O-])cc1)c1c(O)nc[nH]c1=O, the “hERG current change (%, negative = inhibition) at 10uM” value rises from 1.97% to 16.7%.

Going from CCc1nnc(NS(=O)(=O)c2ccc(NC(=S)NC(=O)c3cccnc3)cc2)s1 to COc1ccc(C(=O)NC(=S)Nc2cccnc2)cc1OC, the “hERG current change (%, negative = inhibition) at 10uM” value rises from -5.99% to 12.9%.

First: CCCn1c(N2CCC(Cc3ccccc3)CC2)nc2c1c(=O)[nH]c(=O)n2C
Second: Cc1ccc(C)c(OCCCCn2cnc3ccccc3c2=O)c1
The “hERG current change (%, negative = inhibition) at 10uM” value of the first is lower: -51.2% for the first, 6.86% for the second.

Compared with Cc1ccc(Oc2ccc(S(=O)(=O)N3CCOCC3)cc2C(N)=O)cc1C, Cc1ccccc1Cn1cc(S(=O)(=O)c2ccc(C(C)C)cc2)c(=O)c2cc3c(cc21)OCO3 is higher in “hERG current change (%, negative = inhibition) at 10uM” value: -29.6% for the first, -20.2% for the second.

Compared with O=C(/C=C/c1cccc([N+](=O)[O-])c1)NCCSCc1ccccc1Cl, O=C(CCSc1ccc(Cl)cc1)NN=C1CCCCCC1 is higher in “hERG current change (%, negative = inhibition) at 10uM” value: -11.5% for the first, -11.4% for the second.

With CN(C)c1nnnn1-c1ccccc1Oc1ncc(C(F)(F)F)cc1Cl the “hERG current change (%, negative = inhibition) at 10uM” value was -5.73%.

— PMC4336329 (PLoS ONE, 2015)
